Our source for the TGI and GI50 values is PubChem BioAssay (NCI).

For orientation: TGI means the concentration giving total growth inhibition. A low value points to greater sensitivity of the cells. By GI50 is commonly meant the concentration giving 50% growth inhibition.

“And” between values parts separate entries of the source, which are not always exact repeats. Equal values may be shown once.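 How tested: cells in 96-well plates exposed to compound for 48 hours at five concentrations. The concentration for 50% growth inhibition is given as GI50. At the TGI there is no net growth.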

In the experiment the test system is NCI-H322M lung. The experiment can be described thus: DTP human tumour cell line panel, 48 h.
Regarding `COc1cc2c(cc1OC)C1Cc3ccccc3CCN1CC2` (centres undefined), the TGI was more than 100 µM.

The compound `CSC(SC)=C1C(=O)NN=C1C` displayed a concentration for total growth inhibition (TGI) of more than 100 µM.

For the compound `C[C@@H](c1ccc2nccn2c1)n1nnc2ncc(-c3cnn(C)c3)nc21`, the GI50 is more than 100 µM and the TGI was more than 100 µM.

Take `O=C1Nc2cccc3ncn(c23)C2=C1CCCC2`: the TGI is more than 100 µM.

In the case of `CCCCCCCCCCCCCCCCCCNC(=O)[C@H]1CSC(c2ccc(OC)c(F)c2)N1` (some centres undefined), the GI50 is more than 31.6 µM and the TGI was more than 47.1 µM.

As for `COC(=O)C1Cc2ccc(C)cc2C1=O` (centres undefined), the TGI was more than 100 µM.

`COc1c(OC(C)=O)ccc(/C=C2\N=C(C)OC2=O)c1[N+](=O)[O-]`: the TGI is more than 100 µM.

On to `COc1c(Cl)ccc(Cl)c1C(=O)NNC(=O)c1c(Cl)c(Cl)c(Cl)c(Cl)c1-c1nc2ccc(C(=O)c3ccccc3)cc2[nH]1`, for which the TGI was more than 100 µM.

Regarding `CSCCC(NCc1c(O)ccc2ccc(=O)oc12)C(=O)O` (centres undefined), the total growth inhibition concentration (TGI) is more than 100 µM.

The compound `Cn1c(=O)n2n(c1=O)Cc1cccc3cccc(c13)C2` returned a TGI of more than 100 µM.

On to `CC(=O)Nc1ccc(Nc2cc(=O)n(C)c(=O)[nH]2)cc1`, for which the TGI is more than 100 µM.

`O=C1C(C(O)(C(F)(F)Cl)C(F)(F)Cl)CCC1C(O)(C(F)(F)Cl)C(F)(F)Cl` (centres undefined) had a TGI of more than 10 µM.

`O=C(Cc1ccccc1)NN1C(=O)C(Cl)C1c1cccc(O)c1` (centres undefined) displayed a TGI of 34.5 µM.

Consider `CC(O)c1c2c(cc3c1CC1(C3)Cc3cc4c(c(C(C)O)c3C1)CCC4)CCC2` (centres undefined), for which the TGI is 59.1 µM.

The compound `CCOC(=O)c1cccc(=O)c(C(=O)OCC)c1` came in with a TGI of more than 100 µM.

Regarding `COc1cc(-c2cc(C(=O)N3CCN(C(=O)c4ccccc4NCc4ccco4)CC3)nc3cc(-c4ccccc4)nn23)cc(OC)c1OC`, the GI50 is 6.37 µM and the TGI was more than 100 µM.

As to `CN(C)CCN1C(=O)CC[C@@]2(C)C1=CC[C@@H]1[C@@H]2CC[C@@]2(C)[C@H]1CC[C@]2(C)O`, the TGI is more than 100 µM.

The compound `N#C/C(=C1\N=C(c2ccccc2O)Oc2ccccc21)c1ccc([N+](=O)[O-])cc1` yielded a TGI of more than 100 µM.

`N#Cc1ncn(-c2ccccc2)c1N` registered a total growth inhibition concentration (TGI) of more than 100 µM.

Take `Cc1ccc(/C=C2\N=C(N3CCCCC3)NC2=O)cc1`: the concentration for total growth inhibition (TGI) was more than 100 µM.

Take `COc1ccccc1C(=O)/C=C/c1cc2cccc(OC)c2[nH]c1=O`: the GI50 was 0.291 µM and the TGI worked out at 5.73 µM.

For `COCCOCN(C(=O)C1=CCC2(CC1)OCCO2)c1ccccc1I`, the TGI was more than 50 µM.

Regarding `CC(C)(C)c1cc(C(=O)/C=C/c2ccc(O)c(O)c2O)cc(C(C)(C)C)c1O`, the TGI was more than 65.7 µM.

For `CC12CC3CC/C(=N\O)C(C1)C3(N1CCOCC1)C/C2=N/O` (centres undefined), the TGI is more than 100 µM.

Regarding `CC12OC(C(=O)C13CC3)C1C(=O)c3ccccc3C(=O)C12` (centres undefined), the GI50 is 34.1 µM and the TGI was more than 100 µM.

In turn, `COC(=O)Nc1nc2ccc(C(=O)c3ccc[nH]3)cc2[nH]1` registered a TGI of more than 100 µM.

For the compound `C/C(=N\N(C)C)c1sc(-n2nc(-c3ccccc3)cc2-c2ccccc2)nc1C`, the TGI was more than 100 µM.

Take `O=C1C2CC(Cl)C(SSC3CC4C(=O)N(SC(Cl)(Cl)C(Cl)Cl)C(=O)C4CC3Cl)CC2C(=O)N1SC(Cl)(Cl)C(Cl)Cl` (centres undefined): the TGI is 9.46 µM.

`CC(=O)Oc1c(C)n(CCCl)ccc1=O`: the TGI was more than 100 µM.

In turn, `COc1cc(N(CCC#N)CCC#N)ccc1/C(N=Nc1ccc(C)cc1)=N/NC(=O)c1cc(Br)ccc1O` had a TGI of 73.2 µM.

For `O=C(CCCc1c[nH]c2ccccc12)NC1CC(=O)c2c(Br)sc(Br)c21` (centres undefined), the GI50 was 13.1 µM and the TGI amounted to 43.6 µM.

On to `O=C(Nc1n[nH]c2nc(-c3ccco3)c(Br)cc12)C1CC1`, for which the GI50 is more than 25 µM and the TGI is more than 25 µM.

Consider `CCCCCCCCCCCCc1ccc(C(=O)/C=C/C(=O)O)cc1`, for which the GI50 is 17.2 µM and the TGI came out at 31.3 µM.

Take `CC1(C)CC(=O)C2=C(C1)NC(SSC1=C(C#N)C(c3ccccc3)C3=C(CC(C)(C)CC3=O)N1)=C(C#N)C2c1ccccc1` (centres undefined): the GI50 is 150 µg/mL and the TGI was more than 150 µg/mL.

Take `COc1cc(CCc2cc(NC(=O)c3ccc(N4C[C@@H](C)N[C@@H](C)C4)cc3)n[nH]2)cc(OC)c1`: the GI50 was 7.6 µM and 5.15 µM; the TGI was > 10 µM and 17.8 µM.

Take `O=C1CC(=O)N(C2CCCCC2)C(=O)N1c1ccccc1S(=O)(=O)Oc1ccccc1`: the TGI is more than 100 µM.

Consider `O=C(c1ccccc1)c1nn(-c2ccc(Cl)cc2)c2nc3nc(-c4ccccc4)cc(=O)n3nc12`, for which the GI50 is 22.7 µM and the TGI turned out to be 67.4 µM.

`CCCCOC(=O)C(=O)C(CC(C(=O)Cc1ccccc1)c1ccccc1)C(=O)C=C(C)C` (centres undefined) came in with a TGI of more than 100 µM.

Compound `CCCCCCC(=O)C/C(CCC(=O)N(Cc1ccccc1)Cc1ccccc1)=N\Nc1ccc([N+](=O)[O-])cc1[N+](=O)[O-]` displayed a TGI of more than 100 µM.

As for `O=[N+]([O-])c1cccc(N=C2c3ccccc3CN2c2cccc([N+](=O)[O-])c2)c1`, the TGI was more than 100 µM.

`CC(CC(=O)CO[C@H]1[C@H](O)[C@@H](O)[C@@H](O)[C@@H]2NC(=O)c3c(cc4c(c3O)OCO4)[C@H]21)OC1OC(CO)C(O)C(O)C1O` (some centres undefined) displayed a TGI of 2.12 µM.

Regarding `Cc1ccc(S(=O)(=O)NC(=O)NC(CO)C(=O)O)cc1` (centres undefined), the TGI is more than 100 µM.

With `O=C1C=C[C@]2(C[C@@H](c3cccc(C(F)(F)F)c3)O[C@@H](c3cccc(C(F)(F)F)c3)O2)O1`, the GI50 was 10.3 µM and the TGI came out at 26.8 µM.

As to `COC(=O)[C@]12CC[C@@H](C)[C@H](C)[C@@H]1C1=CC[C@@H]3[C@@]4(C)CC(=O)[C@H](O)[C@@]5(C)COC(=C45)C[C@@]3(C)[C@]1(C)CC2`, the GI50 is 17.2 µM and the total growth inhibition concentration (TGI) is 33.2 µM.

`CC1=C(C(=O)Nc2ccccc2)C(c2ccc3c(c2)OCO3)C(C(=O)Nc2ccccc2)=C(C)N1` returned a total growth inhibition concentration (TGI) of more than 100 µM.

Turning to `Nc1ccn(C=C=CCO)c(=O)n1`, the GI50 is more than 1000 µM and the TGI was more than 1000 µM.

For the compound `NC(N)=NC(CC(=O)O)c1ccccc1` (centres undefined), the TGI was more than 100 µM.

On to `Cc1c(NC(=O)C(=O)N=NC(=O)c2ccncc2)c(O)c2ccccc2c1O`, for which the TGI came out at 29.3 µM. This lies in the double-digit micromolar range.

`O=C(O)C(Cc1ccc2c(c1)CCC2)(Cc1ccc2c(c1)CCC2)C(=O)O` gave a TGI of more than 100 µM.

Compound `Cc1nc(-c2ccccc2)c(C)n2c1nc1ccccc12` came in with a TGI of more than 100 µM.

Compound `Cc1cc(Br)cc(C)c1NC(=O)C(=O)CC(=O)c1sc(-n2nc(-c3ccccc3)cc2-c2ccccc2)nc1C` had a TGI of more than 100 µM.

Consider `O=c1c(Cl)nnc2sc3ccccc3n12`, for which the GI50 was 13.4 µM and the TGI worked out at 42.5 µM.

Regarding `COc1cc(C2CC(c3cccc(Nc4ccncc4)c3)=NN2c2cc(Cl)cc(Cl)c2)cc(OC)c1OC` (centres undefined), the GI50 was 1.6 µM and the TGI came to 3.03 µM.

Consider `COc1ccc(-c2cc(-c3ccc(Nc4nc(Nc5ccc(Cl)cc5)nc(Nc5ccc(Cl)cc5)n4)cc3)nc(N)c2C#N)cc1`, for which the GI50 is 35 µM and the concentration for total growth inhibition (TGI) was more than 100 µM.

In turn, `CCOc1ccc(N2C(=O)C3c4[nH]c5ccccc5c4C4CCC(C(C)(C)C)CC4C3C2=O)cc1` (centres undefined) gave a TGI of more than 100 µM.

Take `O=[N+]([O-])c1ccc(Cl)cc1-n1nc(-c2ccccc2)cc1-c1ccccc1`: the total growth inhibition concentration (TGI) was more than 100 µM.

`NC(N)=NS(=O)(=O)c1ccc(NC(=O)c2cccc3c(Nc4ccc(S(=O)(=O)N=C(N)N)cc4)c4ccc(Cl)cc4nc23)cc1` came in with a TGI of more than 100 µM.

In the case of `NCC(O)CNCC/C=C\C/C=C\C/C=C\C/C=C\C/C=C\C/C=C\CCCCC/C=C\CCNCC(O)CN` (centres undefined), the TGI was determined as 3.07 µM.

`O=C(O)CCC(NC(=O)c1ccc(Nc2nc3ccccc3nc2C(=O)O)cc1)C(=O)O` (centres undefined): the TGI is more than 100 µM.

For the compound `CCOC(=O)C1C=C2O[C@@H]3OC4(CCCCC4)O[C@@H]3C2[C@H]2C(=O)C=CC(=O)[C@@]12C(=O)OC` (some centres undefined), the TGI was 31.2 µM.

Regarding `Cc1cn(CC2=NCCN2)c(=O)[nH]c1=O`, the TGI was more than 100 µM.

As to `Cc1c(C(=O)CSc2nc3ccc([N+](=O)[O-])cc3[nH]2)c(=O)n(-c2ccccc2)n1C`, the TGI was more than 100 µM.

In turn, `CC(NC1=CC(=O)c2ncccc2C1=O)C(O)c1ccccc1` (centres undefined) yielded a concentration for total growth inhibition (TGI) of 24.5 µM.

For `C=C(c1ccccc1N)[C@@]1(O)C[C@H](/C(=C\C)CO)C[C@@H]1NCc1ccccc1`, the TGI was more than 100 µM.

Regarding `CN(C)CCOc1ccc(I)cc1Cc1ccccc1`, the total growth inhibition concentration (TGI) is 27 µM. This lies in the double-digit micromolar range.

`CCOc1cc(/C=N\N(C)C)cc(/C=N\N(C)C)c1O` showed a TGI of more than 100 µM.

Consider `C[C@H]1[C@H](OC(=O)CCC(=O)O)O[C@@H]2O[C@]3(C)CC[C@H]4[C@H](C)CC[C@@H]1[C@@]24OO3`, for which the GI50 was 15 µM and the TGI was more than 100 µM.

Take `Nc1cccc2c1C(=O)N(C1CCC(=O)NC1=O)C2=O` (centres undefined): the GI50 was more than 100 µM and the TGI was more than 100 µM.

For `O=C1/C(=C\c2ccc(Cl)cc2)CN(C(=S)Nc2ccccc2)C/C1=C\c1ccc(Cl)cc1`, the GI50 is 2.66 µM and the TGI stood at 14.4 µM.

For the compound `COc1cc(O)c(C(=O)/C=C/c2ccccc2)c(OC)c1`, the TGI was 17.6 µM.

Turning to `COc1cc(C(=O)O)c([N+](=O)[O-])c(OC)c1OC`, the TGI is more than 100 µM.

In the case of `CC(=O)Oc1cc(OC(C)=O)c2c(=O)c3ccccc3n(C)c2c1`, the TGI was more than 100 µM.

Regarding `Cc1cc2nc(N3C(=O)/C(=C/c4cccc([N+](=O)[O-])c4)N=C3c3ccccc3)sc2cc1C`, the TGI was more than 100 µM.

On to `N=C(/C=C/c1ccc(-c2cn3cc(/C=C/C(=N)N4CCCC4)ccc3n2)cc1)N1CCCC1`, for which the TGI was more than 100 µM.

For `O=C1c2cc3c(cc2-c2c1c1cc(Cl)c(Cl)cc1c(=O)n2CCCn1ccnc1)OCO3`, the GI50 was 0.0469 µM and the TGI is more than 100 µM.

`CCOC(=O)CCC(NC(=O)c1ccc(N=Cc2nc3cc(C(F)(F)F)ccc3nc2-c2ccccc2)cc1)C(=O)OCC` (centres undefined): the GI50 is more than 100 µM and the TGI was more than 100 µM.

`CC(Cl)(/C=C/Cl)C(Cl)/C=C/C(Cl)(CCl)CBr` (centres undefined): the TGI came to 24.1 µM. In other words, the double-digit micromolar range.

In turn, `O/N=c1/ccn(O)c2ccccc12` displayed a TGI of 4.13 µM.

Consider `Cn1nc(-c2ccccc2NC(=O)C(F)(F)F)c(=O)n(C)c1=S`, for which the TGI was more than 100 µM.

Turning to `COc1cc(C2C(Cl)C(=O)N2n2cnc3ccccc3c2=O)cc(OC)c1OC` (centres undefined), the TGI is more than 100 µM.

The compound `COC(=O)C1Cc2c([nH]c3ccccc23)C(c2cccc(O)c2)N1` (centres undefined) gave a concentration for total growth inhibition (TGI) of 84.2 µM.

As for `O/N=C1/C(=C/c2ccc(F)cc2)CCCC1C(NO)c1ccc(F)cc1` (centres undefined), the total growth inhibition concentration (TGI) is 36.9 µM.
